{"source": "patent US20220194996A1", "about": "(STATENS SERUM INSTITUT, published 2022)", "binders": {"B1": {"name": "Pro-6C fusion protein (Pfs230 Pro domain fused to Pfs48/45 6C), produced in L. lactis (other)", "chain": "GAMVDTLSGLSSEQGQSGDMTIEEDS[no letters for about 80 residues]GKATKGDAHIGGSEYVDEKERQGEIYPFGDEEEKDEGGESFTYEKSEVDKTDLFKFIEGGEGDDVYKVDGSKVLLDDDTISRVSKKHTARDGEYGEYGEAVEDGENVIKIIRSVLQSGALPSVGVDELDKIDLSYETTESGDTAVSEDSYDKYASNNTNKERSEKKVIHGCNFSSNVSSKHTFTDSLDISLVDDSAHISCNVHLSEPKYNHLVGLNCPGDIIPDCFFQVYQPESEELEPSNIVYLDSQINIGDIEYYEDAEGDDKIKLFGIVGSIPKTTSFTCICKKDKKSAYMTVTIDSAHHHHHH"}}, "molecular_target": "rat mAb 45.1 (against Pfs48/45 conformational epitope I)"}
{"binder": "B1", "values": [{"measurement": "% of folding", "result": 90, "unit": "%"}]}
